Screen size: about 46,000 compounds; about 60 (0.1%) were called active. Roughly 3% stayed inconclusive and do not appear here. Calls follow the shape of the dose curve; as a rule, active = well fitted inhibition curve with a large enough effect; inconclusive = small, poorly fitted or top-dose-only effect; inactive = no such curve, though single readings can be large or run the other way. The list shows a part of the results.
Assay: Primary qHTS assay for Inhibitors of ovarian cancer metastasis using an organotypic tumor microenvironment (TME) model. Also: nearly all actives have a fitted effect of over 65% in size.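 As to activity change, negative = inhibition: plate controls were DMSO wells for no effect and tomatine positive control wells for full effect.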
Conditions: SKOV3ip1-GFP adhesion/invasion on 3D omental model, fluorescence; series mostly up to 45.8 µM; activity change, negative = inhibition: at the top concentration
Outline: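 A 3D layer of primary human omental fibroblasts, mesothelial cells, fibronectin and collagen I, grown 48 hr, received SKOV3ip1-GFP cells in serum-free medium plus compounds at 0.36-46 umol/L. After 2 hr RT and 16 hr 37 C, fixed adherent GFP cells were counted; normalized to DMSO and tomatine.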

Activity change, negative = inhibition, inactive:
CCc1ccc(NC(=O)CCNS(=O)(=O)c2ccc3c(c2)CCCC(=O)N3)cc1 0.582%
Cc1ccc(CNC(=O)c2cccc(-n3cnc4cccnc43)c2)cc1 16%
CCSc1nnnn1-c1cccc(C(=O)O)c1 4.91%
Cc1cc2nc(-c3cccc(NC(=O)CSc4ccc(Cl)cc4)c3)oc2cc1C -24.2%
COc1cccc(NS(=O)(=O)c2ccc3c(c2)CCCN3C(=O)C2CCC2)c1 1.19%
COc1ccc(-c2nn(-c3cccc([N+](=O)[O-])c3)c3c2cnc2cc4c(cc23)OCO4)cc1 -13.2%
CC(C)c1ccc(Nc2nc3c(S(=O)(=O)c4ccc(Br)cc4)nnn3c3ccsc23)cc1 4.97%
CCCN(C(=O)c1cc2c(s1)-c1c(C)cccc1OC2)c1ccc(OCC)cc1 0.162%
Cc1ccc(NC(=O)C(Cc2ccccc2)n2cccc2)cc1C (stereo not given) -15.3%
Cc1ccc(-c2nc3ccccn3c2Nc2ccc3c(c2)OCO3)o1 -20.9%
O=C(/C=C/c1cn(CC(O)CN2CCCCCC2)c2ccccc12)c1ccc(Br)cc1 (stereo not given) -4.66%
COC(=O)c1ccccc1NC(=O)c1cc2c(-c3ccc(OC)c(OC)c3)nn(C)c2s1 -0.818%
C=CCC(CC=C)(CNC(=O)C(=O)Nc1ccc(C(=O)OCC)cc1)c1ccccc1 -5.68%
COc1ccccc1Nc1nn2c(=O)c3ccc(C(=O)NC(C)c4ccccc4)cc3nc2s1 (stereo not given) 5.85%
Cc1ccc(NC(=O)Cn2cc(S(=O)(=O)c3ccccc3)c(=O)c3cc4c(cc32)OCO4)cc1 12.8%
COc1ccc(C2c3[nH]c4ccc(OC)cc4c3CCN2C(=O)Nc2ccccc2)cc1 (stereo not given) -5.28%
Cc1c(NC(=O)Nc2ccc(C#N)cc2)c(=O)n(-c2ccccc2)n1C -27.6%
Cc1cccc(-c2c3c(=O)n(C)c(=O)n(C)c3c3cnc4ccccc4n23)c1 -0.327%
CCN(CC)c1ccc2cc(-c3nc(-c4cc(OC)c(OC)c(OC)c4)no3)c(=O)oc2c1 -8.55%
Cc1cc(C)c2c(n1)SCCN2C(=O)Nc1ccc(C(=O)Nc2ccc(C(C)C)cc2)cc1 -5.44%
Cc1cc(C)c(NC(=O)Cn2nnc(-c3nc(-c4ccccc4)no3)c2N)c(C)c1 0.144%
CCN(CCN(C)C)C(=O)C1CCN(S(=O)(=O)c2c(C)noc2/C=C/c2ccccc2F)CC1 -1.72%
CC(=O)N1CCCc2cc(S(=O)(=O)N3CCN(c4cccc(C(F)(F)F)c4)CC3)ccc21 -11%
COc1ccccc1NC(=O)C1CCN(c2cnccn2)CC1 8.2%
CSc1ncc(C(=O)Nc2cc(Cl)ccc2C)c(-c2ccccc2)n1 -1.98%
Cc1ccc(-c2cc(C(F)(F)F)nn2-c2ccc(S(N)(=O)=O)cc2)cc1 -1.2%
Cc1cc(C)cc(-n2ccn(CC(=O)Nc3ccccc3F)c(=O)c2=O)c1 -10.8%
CCOc1ccc(-n2nc(CO)c(C(=O)NCc3cccc(OC)c3)n2)cc1 -4.71%
CC(=O)c1ccc(NC(=O)c2nc3nc(C)cc(C(F)F)n3n2)cc1 -5.65%
O=C(CCC1N=C2c3ccccc3N=C(SCc3ccc(F)cc3)N2C1=O)NC1CCCCC1 (stereo not given) 6.28%
COC(=O)c1ccccc1NC(=O)Cn1c(=O)n(CCCC(=O)NCc2ccccc2OC)c(=O)c2ccccc21 43.2%
COc1ccc(-c2cc(=O)oc3c4c(ccc23)OCN(Cc2cccc(OC)c2)C4)cc1 2.87%
Cc1ccc(C)c(NC(=O)C(c2ccccc2)N2Cc3ccccc3C2=O)c1 (stereo not given) -0.306%
Cc1ccc2oc(-c3ccc(Cl)c(NC(=O)c4ccc(OC(C)C)cc4)c3)nc2c1 -3.71%
Cc1cc(C)cc(NC(=O)C2CCN(S(=O)(=O)c3ccc4c(c3)oc(=O)n4C)CC2)c1 9.23%
Cc1ccccc1-c1noc(-c2cc(-c3ccc(F)cc3)n[nH]2)n1 -15.5%
Cc1ccc(NC(=O)C2CCC(CNS(=O)(=O)c3ccc4c(c3)CCCC(=O)N4)CC2)c(C)c1 (stereo not given) 0.82%
Cc1cn2c(=O)cc(COc3ccccc3NC(=O)c3ccc(Cl)cc3)nc2s1 4%
CCOC(=O)c1ccc(NC(=O)CSc2nc3c([nH]c4ccccc43)c(=O)n2C)cc1 -18.3%
CC(C)c1ccc(Nc2c(-c3ccco3)nc3ccccn23)cc1 -1.71%
COc1ccc(C(=O)Nc2nc3ccc(S(=O)(=O)N4CCCC4)cc3s2)cc1 15.7%
COc1ccccc1-c1nnc(C2CCN(S(=O)(=O)c3ccccc3)CC2)o1 4.61%
O=C(Nc1ccc(NC(=O)c2ccc(Br)cc2)c(Cl)c1)c1ccc(Br)cc1 0.504%
Cn1cc(S(=O)(=O)N2CCCC2)cc1C(=O)Nc1ccc(C(F)(F)F)cc1 -12%
COc1ccc(CNc2oc(COc3cccc(C)c3)nc2C#N)cc1 -7.07%
COc1cccc(-c2nc(CS(=O)(=O)CC(=O)NCCCN3CCN(C)CC3)c(C)o2)c1 -0.88%
CCCCCn1c(=O)[nH]c2cc(C(=O)Nc3ccc(OC)c(OC)c3)ccc2c1=O 6.15%
COc1ccc(C)cc1NC(=O)C1CCCN(S(=O)(=O)c2ccc3c(c2)oc(=O)n3C)C1 (stereo not given) 50.8%
Cn1c(=O)c(=O)n(C)c2cc(N3CCCC3)c(NC(=O)c3ccc(C(C)(C)C)cc3)cc21 2.8%
COc1cccc(-c2nnc3n(CCc4ccccc4)c(=O)c4ccccc4n23)c1O 2.32%
CCOC(=O)CC(=O)CSc1nc2ccccc2c(=O)n1CCc1ccccc1 -2.14%
O=C(O)C1=CC(O)C(O)[C@H](O)C1 (stereo not given in full) -14.5%
Cc1ccc(SCc2nc(-c3ccc(C(=O)NCc4ccccc4Cl)cc3)oc2C)cc1 10.4%
CC(=O)Nc1cccc(NC(=O)C2(c3cccs3)CCOCC2)c1 0.94%
O=C(CCC1N=C2c3ccccc3N=C(SCC(=O)Nc3ccccc3F)N2C1=O)NCc1cccs1 (stereo not given) 0.735%
CCOC(=O)C1=C(c2ccccc2)Nc2ncnn2C1c1ccc(Cl)cc1 (stereo not given) -5.33%
COc1cc(OC)cc(C(=O)Nc2ccc3oc(-c4ccc(Cl)cc4)nc3c2)c1 9.52%
CCSc1nnc2c(n1)OC(c1ccc(OCC(=O)O)cc1)Nc1ccccc1-2 (stereo not given) -11.7%
CCn1cc(C(=O)NCCOC)c(=O)c2cc(S(=O)(=O)N3CCOCC3)ccc21 -5.14%
CCc1ccc(NC(=O)C2CCN(S(=O)(=O)c3c(C)noc3/C=C/c3cccs3)CC2)cc1 -3.68%
Cc1cccc(NC(=O)CSc2cn(CC(=O)N3CCOCC3)c3ccccc23)c1 -29.1%
COc1ccc(S(=O)(=O)N(CCc2ccccc2)CC(=O)Nc2cc(C)ccc2C)cc1 4.08%
CCOC(=O)c1cccc(NS(=O)(=O)c2c(C)nc3sc(C)cn3c2=O)c1 4.67%
Cc1nc2ccc(S(=O)(=O)N(CC(=O)Nc3ccc(Cl)cc3)Cc3ccccc3)cc2s1 5.64%
COc1ccc(CNC(=O)c2ccc3c(c2)NC(=O)C(CS(=O)(=O)Cc2ccccc2Cl)N3)cc1 (stereo not given) 0.119%
O=C(c1ccc2c(c1)N(Cc1cccc(Cl)c1)C(=O)c1ccccc1S2(=O)=O)N1CCC(Cc2ccccc2)CC1 -2.15%
CCOc1ccccc1CNC(=O)CN1C(=O)CCn2nc(-c3cn(C)c4ccccc34)cc21 -2.3%
Cc1ccc(NC(=O)C(Cc2ccccc2)n2cccc2)c(C)c1 (stereo not given) -9.11%
CCOc1ccc(C(=O)c2oc3ccccc3c2NC(=O)c2cc(-c3ccccc3)on2)cc1 3.18%
COc1ccc2c(CNCc3cccs3)c(C(=O)O)n(Cc3ccc(F)cc3Cl)c2c1 -10.6%
COc1ccccc1-n1ncc2c(=O)[nH]c(SCC(=O)Nc3cccc(F)c3)nc21 9.57%
CC(C)CCOc1ccc(Oc2nc(N(C)C)nc(N(C)C)n2)nn1 -3.4%
CSc1cccc(N2C(=O)N(CC(=O)NCc3ccccc3Cl)c3ccccc3S2(=O)=O)c1 10.6%
CC(C)Oc1cccc(C(=O)Nc2ccc(-c3nc4cc(Cl)cc(Cl)c4o3)cc2)c1 0.314%
Cc1nnc(SCc2ccccc2Cl)c2cc3occc3n12 -9.49%

outcome, inactive:
CCOC(=O)c1cc(-c2ccc(C)cc2)n(CC(=O)NC2CCCCCC2)c1C
Cc1cccc(C(=O)Nc2ccc(OCc3cc(=O)n4c5c(sc4n3)CCCC5)cc2)c1
CCC(=O)Nc1sc2c(c1C(=O)Nc1cccc(C)c1)CCCC2
O=C(Nc1c(Cl)cccc1Cl)c1cc(-c2cccc(O)c2)on1
COC(=O)Cc1c(C)c2cc3c(c(C)c2oc1=O)OCN(CCc1ccc(OC)cc1)C3
COc1cc2cc(CNc3ccccc3)c(=O)n(CC(=O)Nc3cc(C)cc(C)c3)c2cc1OC
CCCCc1nc2ccccc2n1CC(=O)N(COCC)c1c(C)cccc1CC
COc1cc(NC(=O)c2ccc(-n3cnc4cccnc43)cc2)cc(OC)c1
COc1cccc(N2CCN(C(=O)Cn3cnc4onc(-c5ccc(F)cc5)c4c3=O)CC2)c1
CCc1nn(CC(=O)N2CCN(c3cccc(C(F)(F)F)c3)CC2)c(=O)c2cc3occc3n12
COc1cccc2cc(-c3nnc(-c4ccc(Cl)cc4)o3)c(=O)oc12
CC(=O)Nc1ccc(S(=O)(=O)N2CCN(c3ccccc3)CC2)cc1
COc1cccc(CNC(=O)CN(c2ccc(C(C)C)cc2)S(=O)(=O)c2c(C)n[nH]c2C)c1
CCc1cccc(CC)c1NC(=O)c1c(C)oc2ccc(O)c(CN3CCOCC3)c12
Cc1cc(=O)n2c(C(=O)Nc3ccc(F)c(Cl)c3)c(C(=O)Nc3cccc(C)c3C)sc2n1
CCOc1ccccc1N(C)C(=O)Cn1cnc2onc(-c3ccc(F)cc3)c2c1=O
Cc1ccc(NC(=O)CSc2nc(-c3cccs3)cc(C(F)(F)F)n2)cc1C
COc1cc(-c2noc(-c3ccc(NC4CCCCC4)c([N+](=O)[O-])c3)n2)cc(OC)c1OC
Cc1cccc2sc(N(Cc3cccnc3)C(=O)Cc3ccccc3)nc12
CCCCCn1c(=N)c(S(=O)(=O)c2ccccc2)cc2c(=O)n3cccc(C)c3nc21
